Laboratory results as given in PubChem BioAssay AID463173 (ICCB-Longwood Screening Facility, Harvard Medical School, 2010).
The campaign covered roughly 52,000 compounds. About 4,300 (8.3%) were called active. Rule as the data show it: active = survival mostly below about 52% (no sharp cut-off); inactive = mostly above about 56%. The list shows a part of the results.

Tested on: DeltatarO mutant
Assay: S. aureus survival, RN4220 and DeltatarO strains – OD600, teichoic acid synthesis inhibitors, primary screen (AID 463173)
Conditions: S. aureus RN4220 wild type/DeltatarO growth, OD600, 18 h, active compounds read low, screened at 18.75 µg/mL (by protocol)

Structure (SMILES)	survival
COc1ccc2[nH]c(=O)c(CN(C(=O)c3cccc(Cl)c3)c3ccccc3OC)cc2c1	inactive: 78%
CS(=O)(=O)N1CCc2cc(S(=O)(=O)NCc3ccccc3Cl)ccc21	inactive: 96%
COc1ccc(S(=O)(=O)NCCc2csc3nc(-c4ccc(Cl)cc4)nn23)cc1C	inactive: 95%
COc1ccc(-c2nc(Cn3c(SCc4cccc(Cl)c4)nc4ccncc43)c(C)o2)cc1	inactive: 84%
Cn1cnc(S(=O)(=O)N2CCC(C(=O)NCc3ccccc3)CC2)c1	inactive: 74%
CC1=C(c2ccc(F)cc2)S(=O)(=O)N=C1N1CCC(C(=O)NCCc2ccco2)CC1	inactive: 120%
Cc1ccc(Sc2c(C)nn(C(=O)COc3ccccc3)c2C)cc1	active: 25%
CCOc1ccc(CCNC(=O)c2cn(C)c3ccc(S(=O)(=O)N4CCOCC4)cc3c2=O)cc1OCC	active: 56%
Cc1cc(NS(=O)(=O)c2ccc(NC(=O)c3ccccc3F)cc2)nc(C)n1	inactive: 57%
COc1ccccc1N1CCN(CC(=O)c2ccc(F)cc2)CC1	inactive: 89%
Cc1ccccc1NC(=O)C1CCC(CNS(=O)(=O)c2ccc3c(c2)C(C)(C)C(=O)N3C)CC1 (stereo not given)	inactive: 50%
O=C(CSc1nnc(Cc2ccccc2)o1)c1ccccc1	inactive: 67%
COc1ccc(OCc2ccc(-c3nc(C#N)c(N4CCC(C)CC4)o3)o2)cc1	inactive: 54%
O=c1oc(-c2ccco2)nc2ccccc12	inactive: 64%
CCc1ccc(S(=O)(=O)c2nnn(-c3ccc(F)cc3)c2N)cc1	inactive: 85%
Cc1ccc(NC(=O)c2ccc3snnc3c2)cc1Cl	inactive: 109%
C=C(C)Cn1c(SCC(=O)Nc2cc(C)ccc2C)nc2sc3c(c2c1=O)CCCC3	inactive: 138%
COc1cccc(C(=O)Nc2cc(C)on2)c1	inactive: 89%
Cc1cccc(OCC(=O)NCC2(N3CCN(C)CC3)CCCCC2)c1C	inactive: 104%
COc1ccc(-c2ccc(Nc3ccc(C(=O)N4CCCCCC4)cc3)nn2)cc1	inactive: 71%
CCOc1cc(-c2nnc(SCC(=O)NCc3ccccc3)nc2-c2ccc(OC)c(OCC)c2)ccc1OC	inactive: 67%
COc1ccc(/C=C\c2onc(C)c2S(=O)(=O)N2CCC(C(=O)Nc3ccc(Cl)cc3)CC2)cc1	inactive: 65%
CCc1ccc(NC(=O)C2CCCN(S(=O)(=O)c3ccc4c(c3)CCCN4C(C)=O)C2)cc1 (stereo not given)	inactive: 78%
COc1ccc(C(=O)N2CC(=O)Nc3ccc(C)cc3C2c2ccccc2)c(OC)c1 (stereo not given)	inactive: 59%
Cc1ccc(-n2ncc(C(=O)N3CCCCC3)c2C2CCN(C(=O)OC(C)(C)C)CC2)cc1C	inactive: 94%
